Experimental data as given in the RNAGym collection of RNA variant scans (doi:10.7554/elife.90254).
Read counts are not given, so values of variants with three or more changes are uncertain.

B1: LINE1-mini (parent)
chain: GGCAGAGCUCAACACAGCGUGGCAAAGUGGCUGUGGCUAGACUGCC

Variants of: B1
Test: self-cleavage, relative activity (ratio to wild type); higher = more cleavage; in vitro, sequencing; the parent is a self-cleaving ribozyme

| Variant | self-cleavage |
| --- | --- |
| G1A A16C G29C | 0.4 |
| G1A A16U G40A C46A | 0.02 |
| G1A A16G C18A C23U A41U | 0.04 |
| G1A C10U A39U U43A C46A | 0 |
| G1A A14C A41U | 0.01 |
| G1A C3U C13U | 0.3 |
| G1A C3U C13A | 0.9 |
| G1A A4C G7C U9G C18U | 0.25 |
| G1A C3A A11G | 0.77 |
| G1A G2C C3A A6U G36U | 0.55 |
| G1A C10U G29A C45G | 0.16 |
| G1A A4G G40U | 0.11 |
| G1A A16G G19A A25C G36A U38C U43A | 0.01 |
| G1A C8A A24U | 0.63 |
| G1A A11C A14C G40C | 0.03 |
| G1A A6G A11U U28A G29A G33A | 0.02 |
| G1A C15U G19U A24C G30A | 0.04 |
| G1A A14G A24C U28A | 0.09 |
| G1A A11C G19A U20G | 0 |
| G1A C10A U34A | 0.14 |
| G1A C10A A24C G29U C37U | 0.02 |
| G1A A16G G19A C37G | 0.04 |
| G1A A16U G36A | 0.1 |
| G1A A4U C8U A11U G17C | 0.14 |

| Variant | self-cleavage |
| --- | --- |
| G1A G2A A4C A14U G22A | 0.32 |
| G1A C13A A25C | 0.06 |
| G1A A4U C10U A39U | 0.1 |
| G1A G2A G29C A39U | 0.05 |
| G1A C18U G19U G21C | 0.46 |
| G1A G2A A14U | 1.02 |
| G1A C13A G21U | 0.09 |
| G1A G2A C8G | 0.07 |
| G1A C18A C23U | 2.3 |
| G1A C23U G29A G44U | 0.23 |
| G1A A16C C18A A26C G27U C45A | 0.03 |
| G1A A16U G36A G40A G44U | 0.03 |
| G1A A16G G19C | 0.19 |
| G1A C8G C15A G17U | 0.15 |
| G1A C3U G35A A41G | 1.68 |
| G1A G2C G5C A24U U28G G36C | 0 |
| G1A C15U A26C U43A | 0.02 |
| G1A C13U G29C G33C U34A A39G | 0.05 |
| G1A A24U G33C C42A C46A | 0.04 |
| G1A C13G C23G C37U C45G | 0.14 |
| G1A A11G G19U G33U C37A U38G | 0.02 |
| G1A C13U A14C | 0.07 |
| G1A C3A G30U C46A | 0.45 |
| G1A A11G C18G U32C | 0.04 |

| Variant | self-cleavage |
| --- | --- |
| G1A C10A A11C | 0.13 |
| G1A A4G C10U A12U A14U | 0.06 |
| G1A C3U U9C G19A U32A | 0.09 |
| G1A C10G A39G | 0.1 |
| G1A C8A U34G | 0.26 |
| G1A G2C G29A G35C C46U | 0.13 |
| G1A A6C U20G | 0.33 |
| G1A C13U U28A | 0.12 |
| G1A A11U C37U C45A | 0.03 |
| G1A A4C U28A U38G | 0.03 |
| G1A C13U G21C | 0.22 |
| G1A A4U U20A G35A U38A C42A | 0.02 |
| G1A C10A G17U | 0.04 |
| G1A A4C U20C A26U | 0.03 |
| G1A A6C C8U C10U A25C A26C | 0.03 |
| G1A C3U C18G G22A A25C G33U C42U U43C | 0.07 |
| G1A C3A C10A G17U G21C A26C | 0.34 |
| G1A C3G A16C G30C | 0.4 |
| G1A C13A A41C U43A | 0.03 |
| G1A G2C C10A G21A A25G C42A | 0.02 |
| G1A G2A G5U G27A | 0.26 |
| G1A A41C G44U | 0.08 |
| G1A G2A C8A C18A U20A A24U | 0.15 |
| G1A C3G A6G U34A G35C U38A | 0.17 |

| Variant | self-cleavage |
| --- | --- |
| G1A C13A C45A | 0.2 |
| G1A A4U C31A | 0.49 |
| G1A A4G G27U U28C C31U | 0.15 |
| G1A G2A G19A | 0.08 |
| G1A A4G G29A U34G | 0.11 |
| G1A A12G G33A | 0.05 |
| G1A A4G U9G C23A A25C A41C | 0.03 |
| G1A A6U A26U G30C C37G | 0.31 |
| G1A A4G A14C A26U C31U | 0.02 |
| G1A A25C G29A | 2.13 |
| G1A G2A A12C G30A G36U A39C G44C | 0.03 |
| G1A A11U G33C C42A C46U | 0.05 |
| G1A C15U G19A A26C G35A | 0.08 |
| G1A C10G G19A C31A | 0.04 |
| G1A A4C C31G | 0.03 |
| G1A A4C C31U | 0.01 |
| G1A C15U U32G | 0.08 |
| G1A A6U G22C G27A | 1.2 |
| G1A A4C G22U | 0.06 |
| G1A A16G A25G | 0.03 |
| G1A A11U A41G C45A | 0 |
| G1A C10G A16C G22C C23A G27A | 0.08 |
| G1A C31G U32A A39G | 0.01 |
| G1A C8G G17A U34C U38A | 0.09 |

| Variant | self-cleavage |
| --- | --- |
| G1A C3A U9A | 2.79 |
| G1A C8A A25C G36U C37A | 0.38 |
| G1A C10G A12C U38G G40U | 0.03 |
| G1A C3G A11U G19C G27A C31A | 0.02 |
| G1A C42G C46U | 0.05 |
| G1A C10G C37G | 0.02 |
| G1A C31U G44A | 0.09 |
| G1A C8U A14G | 0.47 |
| G1A C10U A11C A14G A24U C31A G44A | 0.02 |
| G1A A12U G17U | 0.13 |
| G1A A4C G29C U43A C45U | 0.02 |
| G1A A25C G27C U28G C31U | 0.48 |
| G1A A6G G17A | 0.03 |
| G1A C8U A16U G30U C42U | 0.25 |
| G1A C18U G29A U32G A41G | 0.05 |
| G1A C23G A26U C46A | 0.88 |
| G1A A4G A14G A25G | 0.01 |
| G1A C15U C18A G27A C46U | 0.16 |
| G1A C8G A14G U32C G40C | 0.02 |
| G1A C10A G33U G44U | 0.05 |
| G1A G2A A24U C37G A41U | 0.57 |
| G1A A12C G17C G21C G22U | 0.04 |
| G1A C18A G36A | 0.9 |
| G1A A4C G5C G35C C45U | 0.05 |

| Variant | self-cleavage |
| --- | --- |
| G1A A16G A41U | 0.75 |
| G1A C31G G40C | 0.09 |
| G1A A11G G33U | 0.02 |
| G1A C10A U28C | 0.04 |
| G1A C18G G27A C42U | 0.02 |
| G1A C10A A41U | 0.02 |
| G1A C10U G21C | 0.23 |
| G1A A4C A25U U28G | 0.03 |
| G1A A11U A16G C18A | 0.02 |
| G1A A24G U38A | 0.06 |
| G1A C8A U20C C23G | 0.43 |
| G1A A6U C15A C18A G33A G36A C37A | 0.24 |
| G1A C3G G5C A6G A25U U38C | 0.07 |
| G1A A4U G17C U28C C31A G40C A41C | 0.01 |
| G1A C8A C10A U28C | 0.08 |
| G1A C3U G5C A11U G29C C31U | 0.06 |
| G1A C3U G33U | 0.58 |
| G1A C3A A16C | 1.12 |
| G1A C10A A14C C15U G22C G27U G29A U34C | 0.02 |
| G1A G2A G35U | 0.23 |
| G1A G2A A25U U34A | 0.16 |
| G1A C10U C31A G36U G44A | 0.04 |
| G1A G2A G17C G21A G22A C31A A39C | 0.07 |
| G1A C3G A14U A39G | 0.11 |

| Variant | self-cleavage |
| --- | --- |
| G1A C10A G19C | 0.04 |
| G1A A6C C10A A14U A24U A41U | 0.08 |
| G1A C3U C8A G19U G36A | 1 |
| G1A C13G A16C G27U G30U C45U | 0.13 |
| G1A A39C C46A | 0.3 |
| G1A C15A C42U C46U | 0.1 |
| G1A C10A G22C C42U | 0.1 |
| G1A A6C C13A A41G | 0.29 |
| G1A C15G A16G | 0.15 |
| G1A G2C C13G | 0.1 |
| G1A G2A A6G A25U C31A C37G A39U | 0.19 |
| G1A C18G G21U C23U G30C C31U U38G A39C C46U | 0.15 |
| G1A C23G C31G | 0.13 |
| G1A C10U G29A | 0.52 |
| G1A A4G A25U G27C A39U U43C | 0.27 |
| G1A C8G C15A G21C | 0.32 |
| G1A C13G U34A G35C | 0.71 |
| G1A A4U C10U C23U G30U | 0.31 |
| G1A C3G C15G G21C | 0.06 |
| G1A C8G A26C G30A G36A | 0.73 |
| G1A C8U C10G | 0.04 |
| G1A A26C G36U | 0.03 |
| G1A C3A U20G C23U G27C C31A C37G C45U | 2 |
